Data reported in PubChem BioAssay AID1508624 (National Center for Advancing Translational Sciences (NCATS), 2021).
Among all 48,000 compounds or so, about 120 (0.25%) were called active. About 4% were inconclusive and are not listed. Calls come from the whole dose curve; as a rule, active = well fitted activation curve with a large enough effect; inconclusive = small, poorly fitted or top-dose-only effect, or another doubt; inactive = no such curve, though single readings can be large or run the other way. This is one part of the list.

Test: Primary qHTS for Identification of Small Molecule Activators of Huntingtin-Antisense Promoter Activity; note: nearly all actives have a fitted effect of over 55% in size
Conditions: HEK293 HTT-AS promoter firefly luciferase reporter, 24 h; series mostly up to 57.5 µM; activity change, positive = activation: at the top concentration
Outline: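 Luminescence was read after Dual-Glo reagent and a 10 min room-temperature incubation. Values were normalized to vehicle (0% activity) and zero RLU (-100% activity). Reporter HEK293 cells had been exposed to compounds (up to 57.5 uM final) for 24 h.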

| SMILES | activity change, positive = activation |
| --- | --- |
| CC1CCN(S(=O)(=O)c2cc(C(=O)Nc3ccc(Br)cc3F)n(C)c2)CC1 | inactive: -37.4% |
| Cc1ccc(-c2cc(C(=O)N3CCN(c4ccccc4)CC3)c3ccccc3n2)cc1C | inactive: 23.8% |
| CCOc1ccccc1CNS(=O)(=O)c1csc(C(N)=O)c1 | inactive: -27.2% |
| Cc1ccc(Cn2c(CCCNC(=O)C3CCCCC3)nc3ccccc32)cc1 | inactive: -23.1% |
| O=C(Cn1ncc2c(Cl)cccc21)NCc1cccc(Br)c1 | inactive: 9.49% |
| O=C(NC1CCCCC1)c1ccc(CSc2nc3cccnc3n2Cc2ccccc2F)cc1 | inactive: -26.4% |
| CCN1CCCC1CNC(=O)c1cc(S(N)(=O)=O)ccc1OC (stereo unspecified) | inactive: -5.29% |
| Cc1ccc(N2CC(NC(=O)C(=O)c3c[nH]c4ccccc34)CC2=O)cc1 (stereo unspecified) | inactive: -21.8% |
| CC(C)CCNC(=O)c1ccc2c(c1)N(Cc1ccccc1F)C(=O)c1ccccc1S2=O (stereo unspecified) | inactive: -15.5% |
| O=S(=O)(NCc1ccccc1Cl)c1ccc(N2CCCCS2(=O)=O)cc1 | inactive: -28.8% |
| Cc1cccc(C(=O)Nc2nc(-c3nnn(-c4cc(F)ccc4F)c3C)ns2)c1 | inactive: -24.3% |
| Cc1cccn2c(=O)c3cc(C(=O)N(Cc4ccccc4)C(C)C)sc3nc12 | inactive: 0.0367% |
| CCCCN(C)CCNC(=O)c1ccc2c(c1)NC(=O)CN2 | inactive: 6.4% |
| Cc1c(C(=O)NCCc2ccc(S(N)(=O)=O)cc2)sc2nc3n(c(=O)c12)CCCC3 | inactive: -11.8% |
| CC1CCN(S(=O)(=O)c2ccc3c(c2)N(CC(=O)O)C(=O)CO3)CC1 | inactive: -18.9% |
| Cc1cccc(Cn2c(C)c(CNC3CCCCC3)c(C(=O)O)c2C)c1 | inactive: -16.3% |
| COc1ccc(-c2cc(C(F)(F)F)n3nc(C(=O)NCC45CC6CC(CC(C6)C4)C5)cc3n2)cc1OC | inactive: -14.5% |
| CCOC(=O)c1ccccc1NC(=O)N1CCOc2ccc(Cl)cc21 | inactive: -33.2% |
| Cc1cc(Cl)ccc1NC(=O)C1CCN(c2nnc(-n3c(C)ccc3C)s2)CC1 | inactive: -9.5% |
| CCc1ccccc1NC(=O)CSc1nc2c(oc3ccccc32)c(=O)n1-c1ccccc1F | inactive: -22.3% |
| COc1ccc(-c2ccc3cc(C(=O)O)ccc3c2)cc1C12CC3CC(CC(C3)C1)C2 | inactive |
| Cc1ccc(NC(=O)C(=O)NCC(c2cccnc2)N2CCN(Cc3ccccc3)CC2)cc1 (stereo unspecified) | inactive: -19% |
| COc1ccc(OC)c(S(=O)(=O)N2CC=C(c3c(C)n(CC(=O)N4CCCC4)c4ccccc34)CC2)c1 | inactive: -19.1% |

| SMILES | activity change, positive = activation |
| --- | --- |
| CCOc1ccc(C2C(C(=O)Nc3ccc(Cl)cc3)=C(C)Nc3nc(C(F)(F)F)nn32)cc1 (stereo unspecified) | inactive: -28.4% |
| O=S(=O)(c1ccc(Cl)cc1)c1nnn2c1nc(N1CCCCC1)c1sccc12 | inactive: -13.3% |
| Cc1ccccc1NC(=O)CN(c1ccc(Cl)cc1Cl)S(=O)(=O)c1ccccc1 | inactive: -19.8% |
| Cc1cn(C)c(CC(=O)N2CCN(c3ccccc3F)CC2)c1C(=O)O | inactive: -9.05% |
| COc1ccc(-c2nc3sc(CCNC(=O)c4ccccc4C)c(C)n3n2)cc1 | inactive: -6.87% |
| Cc1cccc(NC(=O)N2CCC(CN3CCOCC3)CC2)c1C | inactive: -5.39% |
| CC(CNC(=O)CCS(=O)(=O)c1ccc2c(c1)oc(=O)n2C)c1ccccc1 (stereo unspecified) | inactive: 16.3% [at 11.5 µM, percent change from vehicle, -100% = no light] |
| Cc1ccc2c(c1)-c1c(c(C(=O)N3CCN(c4cc(Cl)ccc4C)CC3)nn1C)CS2 | inactive: -8.44% |
| CCOc1ccc(NC(=O)Cn2c(=O)cc(C)c3c(C)nn(-c4cccc(Cl)c4C)c32)cc1 | inactive: 3.53% |
| CCOc1ccc(C(=O)N2CCN(CCc3ccccn3)CC2)cc1 | inactive: 4.38% [at 11.5 µM, percent change from vehicle, -100% = no light] |
| Cn1c(=O)[nH]c(=O)c2c1nc1n2CCN1c1ccccc1 | inactive: -5.6% |
| CCOc1ccc(S(=O)(=O)c2cn(Cc3ccc(OC)cc3)c3ccc(F)cc3c2=O)cc1 | inactive: -2.78% |
| CC(C)c1ccc(NC(=O)CCNS(=O)(=O)c2ccc3c(c2)CCCC(=O)N3)cc1 | inactive: -22.7% |
| CCOC(=O)CC(NC(=O)CCc1c(C)nc2ncnn2c1C)c1ccc(OC(C)C)cc1 (stereo unspecified) | inactive: -15.9% |
| Cc1ccccc1CSc1nc2cccnc2n1Cc1ccc(C(=O)NC2CC2)cc1 | inactive: 10.6% |
| CCOc1ccc(Nc2nc(C)c(NC(=O)c3cccc(OC)c3)c(Nc3ccc(OCC)cc3)n2)cc1 | inactive: -42% |
| COc1ccc(CNC(=O)C2CCC(CNS(=O)(=O)c3cccs3)CC2)cc1 (stereo unspecified) | inactive: -22.4% |
| CCOC(=O)c1ccccc1NC(=O)CSc1cn(CC(=O)N2CCOCC2)c2ccccc12 | inactive: -17% |
| Cc1ccc(-c2nc(S(=O)(=O)c3ccc(C)cc3)c(N3CCCCCC3)o2)cc1 | inactive: -9.23% |
| Cc1ccc(N2CCN(S(=O)(=O)c3nnc(NC(=O)c4ccc(C(C)C)cc4)s3)CC2)cc1 | inactive: 0.316% |
| CCCCCCCCCCCC(=O)[O][Sn]([CH2]CCC)([CH2]CCC)[O]C(=O)CCCCCCCCCCC | inactive: 0.366% |
| Cc1cc(C)c(NC(=O)CSc2nc(-c3ccc(F)cc3)nc3c2Cc2c(CO)cnc(C)c2O3)c(C)c1 | inactive: -12.4% |
| COc1ccc(S(=O)(=O)N(CC(=O)Nc2cccc(C)c2)c2ccc(C)cc2)cc1OC | inactive: -21.8% |

| SMILES | activity change, positive = activation |
| --- | --- |
| CCOC(=O)C1=C(CN(CC)Cc2ccccc2)NC(=O)NC1c1ccc(OC(C)C)cc1 (stereo unspecified) | inactive: -46.3% |
| COc1ccccc1CNC(=O)c1ccc(N2CCCC2)c(NC(=O)NCc2ccc(F)cc2)c1 | inactive: -9.27% |
| CCCCSCCCNC(=O)C1CCN(Cc2nc(-c3cccc(Br)c3)oc2C)CC1 | inactive: 0.761% |
| O=C(Cn1ncc2c3ccccc3n(Cc3ccccc3F)c2c1=O)N1CCCCC1 | inactive: 15.7% |
| CC(C)CN(CCCNC(=O)CN1N=C(c2ccccc2)CCC1=O)CC(C)C | inactive: 0.687% |
| CCOc1ccc(CCNC(=O)c2[nH]c3cc(OC)ccc3c2Sc2ccccc2)cc1OCC | inactive: -0.615% |
| COc1ccc(N2CCN(c3ccc(-c4nc(-c5cccc(C)c5)no4)cc3[N+](=O)[O-])CC2)cc1 | inactive: 21.1% |
| CCOc1ccc(CCNC(=O)c2cnc3sc(N4CCCCCC4)nn3c2=O)cc1 | inactive: -6.9% |
| COc1ccc(OC)c(NC(=O)CN2CCCN(Cc3cc(C)ccc3C)S2(=O)=O)c1 | inactive: -12% |
| Cc1cccc2c1-c1sc(C(=O)N3CCN(c4cccc(Cl)c4)CC3)cc1CO2 | inactive: -16.7% |
| CC(C)OCc1cc(CN2CCN(c3ccccc3)CC2)c(O)c2ncccc12 | inactive: -43.2% |
| COc1ccc(-c2cc(C(F)(F)F)nc(SCC(=O)NCc3ccc(Cl)cc3)n2)cc1 | inactive: -2.93% |
| CC1=C(C(=O)Nc2ccc(F)cc2F)C2(CCCCCC2)OC1=O | inactive: -29.1% |
| O=C(CN1C(=O)C2(SCC(=O)N2c2ccc(F)c(F)c2)c2ccccc21)Nc1ccccc1F (stereo unspecified) | inactive: -15.9% |
| O=C(CSc1nccn1Cc1ccc(Cl)cc1)NCc1ccccc1 | inactive: -0.644% |
| CCOC(=O)c1ccc(N2C(=O)c3n[nH]c(-c4ccco4)c3C2c2ccc(F)cc2)cc1 (stereo unspecified) | inactive: -57.5% |
| COc1ccccc1CNC(=O)C(CC(C)C)N1Cc2ccccc2C1=O (stereo unspecified) | inactive: -12.6% |
| Cc1cccc(CC(=O)NCCc2csc(-c3ccc(C(F)(F)F)cc3)n2)c1 | inactive: -31.1% |
| Cc1ccc(C)c(C(=O)COC(=O)CCCC(=O)Nc2cc(C(F)(F)F)ccc2Cl)c1 | inactive: -26.7% |
| CCOc1ccc(NC(=O)CN2C(C(=O)OC)=C(c3ccccc3)c3cc(Cl)ccc3S2(=O)=O)cc1 | inactive: -10.5% |
| Cc1cc(=O)[nH]c2nnc(SCc3ccc(Cl)cc3)n12 | inactive: -16.5% |
| COC(=O)C1=C(c2ccccc2)c2ccccc2S(=O)(=O)N1CC(=O)Nc1ccc(OC)cc1OC | inactive: -19.8% |
| O=C(NCc1ccccc1)C1CCN(S(=O)(=O)c2ccc3[nH]c(=O)ccc3c2)CC1 | inactive: -9.41% |

| SMILES | activity change, positive = activation |
| --- | --- |
| COc1ccc(NC(=O)c2c(NCc3cccc(F)c3)sc3c2CCCC3)c(OC)c1 | inactive: -40.7% |
| Cc1cccc(N(C)S(=O)(=O)c2c(C(=O)N3CCCCCC3)c(C)n(C)c2C)c1 | inactive: -10.6% |
| Cc1ccc(CNC(=O)CN2CCN(Cc3ccc(F)cc3)C2=O)cc1 | inactive: -10.1% |
| COc1ccccc1NC(=O)C1CCN(S(=O)(=O)c2cn(C)cn2)CC1 | inactive: -8.68% |
| COc1ccccc1-c1cc(NC(=O)COc2ccc(C)c(C)c2)n(-c2ccccc2)n1 | inactive: 8.49% |
| O=C(NC1CC(=O)N(c2ccccc2)C1)c1ccc(S(=O)(=O)N2CCOCC2)cc1 (stereo unspecified) | inactive: -20.3% |
| c1ccc(-c2cn(-c3ccccc3)c3ncnc(N4CCN(c5ccccc5)CC4)c23)cc1 | inactive: -1.96% |
| COc1ccc(OC)c(NC(=O)CSc2n[nH]c(-c3ccccc3Cl)n2)c1 | inactive: -21.1% |
| Cc1cc(C)cc(Oc2c(C(F)(F)F)oc3c(CN4CCCC(C)C4)c(O)ccc3c2=O)c1 (stereo unspecified) | inactive: -10.7% |
| COc1ccccc1N1CCN(c2ccc3cc(S(=O)(=O)N4CCCCC4)ccc3n2)CC1 | inactive: -33.2% |
| CCOC(=O)CC(NC(=O)c1cc2cc(Cl)ccc2oc1=O)c1ccc(C)cc1 (stereo unspecified) | inactive: 0.713% |
| CCOc1ccc(-n2nc(CO)c(C(=O)NCc3ccc(Cl)cc3)n2)cc1 | inactive: -4.37% |
| CC1CCN(C(=O)CSc2c3c(nc4cc(Cl)ccc24)CCCC3)CC1 | inactive: -43.3% |
| Cc1ccc(-c2nnc(SCCOc3ccccc3)o2)cc1 | inactive: 22.3% |
| COc1ccc(Br)c2c1-c1nc(NC(=O)c3cccc(C)c3)sc1C2 | inactive: -18.4% |
| O=S1(=O)c2ccccc2N(Cc2ccc(Cl)cc2F)c2ccccc21 | inactive: -14.6% |
| CN(C)S(=O)(=O)c1ccc2c(c1)c(=O)c(C(=O)N1CCN(c3cccc(Cl)c3)CC1)cn2C | inactive: 0.752% |
| COc1ccc(OC)c(NC(=O)CSC2=Nc3ccccc3C3=NC(CCC(=O)NCc4ccco4)C(=O)N23)c1 (stereo unspecified) | inactive: 8.46% |
| CCC(=O)Nc1nnc(S(=O)(=O)N(C)Cc2ccc(Cl)cc2)s1 | inactive: -12.2% |
| CCOC(=O)c1ccc(NC(=O)CN(c2ccc(C)cc2)S(=O)(=O)c2ccc(OC)cc2)cc1 | inactive: 25.9% [at 11.5 µM, percent change from vehicle, -100% = no light] |
| CCOc1ccccc1NC(=O)CSC1=Nc2ccccc2C2=NC(CC(=O)NC3CCCCC3)C(=O)N12 (stereo unspecified) | inactive: -16% |
| CCOc1ccc(-c2nc3c(c(SCC(=O)N4CCCCC4)n2)Cc2cc(C)ccc2O3)cc1 | inactive: -5% |
